# Data published in PubChem BioAssay AID2546 (National Center for Advancing Translational Sciences (NCATS), 2010).
# The campaign covered roughly 310,000 compounds. About 11,000 (3.5%) were called active. Inconclusive results, whose numbers are uncertain, are shown with a selection of clear calls. Calls follow the shape of the dose curve; as a rule, active = well fitted inhibition curve with a large enough effect; inconclusive = small, poorly fitted or top-dose-only effect, or effect the other way; inactive = flat fitted curve, though single readings scatter. Potencies of inconclusive entries are left out as doubtful fits.
# Assay: VP16 counterscreen qHTS for inhibitors of ROR gamma transcriptional activity;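 also: Gal4-VP16 expression switched on by copper sulfate through the metallothionein promoter; nearly all actives have a fitted effect of over 50% in size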
# Conditions: Drosophila S2 Gal4-VP16 UAS-luciferase, luminescence, 20 h; activity, negative = inhibition: at 53.6 µM (top of the series)
# % is scaled to controls: 0 for no effect and ±100 for the full control effect; potency is read from the fitted curve at half-maximal effect; tags tell the direction and shape of the fitted curve.
SMILES,Potency,"activity, negative = inhibition"
S=C(NCCc1ccccc1)Nc1cnc2ccccc2c1,"inconclusive [activator, partial curve]",–
COc1cc(/C=C/C(=O)c2cccc([N+](=O)[O-])c2)cc(OC)c1OC,"inconclusive [inhibitor, single point]",–
c1ccc(-c2cc3ccccc3nc2N2CCCC2)cc1,–,inactive: -17.3%
CN(C)CC(C(=O)c1ccccc1)c1ccccc1 (stereo unspecified),active: 7.08 µM,–
CCOC(=O)c1c(NC(=O)COc2ccccc2C#N)sc2c1CC(C)(C)NC2(C)C,"inconclusive [inhibitor, single point]",–
COc1ccccc1N1CCN(C(=S)Nc2ccccc2)CC1,"inconclusive [inhibitor, single point]",–
COc1cc(CC(=O)Nc2nc(-c3ccc(F)c(F)c3)cs2)cc(OC)c1OC,"inconclusive [inhibitor, single point]",–
COc1ccc(-c2cc(C(F)(F)F)nc(S(=O)(=O)CCCC(=O)Nc3cccc(O)c3)n2)cc1OC,active: 11.2 µM,–
Cc1nn(Cc2ccc(F)cc2)c2sc(C(=O)Nc3ccc(N4CCOCC4)cc3N3CCOCC3)cc12,–,inactive: -5.93%
CC1(C(=O)N/N=C/c2ccc([N+](=O)[O-])o2)CC1(Br)Br (stereo unspecified),"inconclusive [inhibitor, single point]",–
CCOC(=O)c1ccc(NC(=S)N2CCN(C(=O)C3CCCO3)CC2)cc1 (stereo unspecified),–,inactive: 4.46%
CC(C)N(C)NC(=S)Nc1ccccc1,"inconclusive [inhibitor, partial curve, poor fit]",–
CC1=CC(C)(C)NC(=S)N1c1ccc(C)c(C)c1,active: 4.47 µM,–
CCOC(=O)COc1cc(-n2c(=S)[nH]c3ccccc3c2=O)c(Cl)cc1Cl,"inconclusive [inhibitor, single point]",–
COC(=O)c1cc(=O)n(Cc2cccs2)c(=Nc2ccccc2)s1,"inconclusive [inhibitor, single point]",–
Cc1cccc(C(O)(C(=O)NNc2ccc3ccccc3n2)c2cccc(C)c2)c1,active: 12.6 µM,–
Cc1nnc(SCc2ccc([N+](=O)[O-])cc2)[nH]c1=O,–,inactive: -1.74% [at 10 µM]
CCC(=O)NC(=S)Nc1ccc(NC(=O)COc2ccc(Cl)cc2Cl)cc1,"inconclusive [inhibitor, single point]",–
CCCCS(=O)(=O)c1sc2nc3c(cc2c1N)CCCC3,"inconclusive [inhibitor, single point]",–
CC(=O)c1c(C)[nH]c(C(=O)Nc2ccc(Cl)cc2)c1C,"inconclusive [inhibitor, partial curve]",–
CCOc1ccc(-c2cn3ccccc3n2)cc1,"inconclusive [inhibitor, partial curve, poor fit]",–
CC(=O)c1ccc(-n2nncc2-c2ccc([N+](=O)[O-])cc2)cc1,"inconclusive [activator, single point]",–
Cc1cccc2sc(NNC(=O)c3ccc(S(=O)(=O)N4CC(C)CC(C)C4)cc3)nc12 (stereo unspecified),active: 1.41 µM,–
C=CCn1c(C)cc(C(=O)Cn2c(C(C)O)nc3ccccc32)c1C (stereo unspecified),"inconclusive [inhibitor, single point]",–

SMILES,Potency,"activity, negative = inhibition"
COCCCC1CCN(C(=O)c2cc(COc3ccc(C)nc3)on2)CC1,"inconclusive [inhibitor, single point]",–
Fc1cc(F)cc(NC(=S)NN2CCOCC2)c1,–,inactive: 7.38% [at 10 µM]
CCN(CC)C(=O)CCSc1nnc(-c2ccco2)o1,"inconclusive [activator, single point]",–
CN1CCN(C2Cc3ccccc3Sc3ccc(S)cc32)CC1 (stereo unspecified),"inconclusive [inhibitor, single point]",–
O=C(Nc1ccc(F)cc1)Nc1ccc(N2CCCC2)c(S(=O)(=O)Nc2ccccc2Cl)c1,"inconclusive [inhibitor, single point]",–
COC(=O)c1ccc(C)c(NC(=O)C(CCSC)NC(=O)c2cc(OC)c(OC)c(OC)c2)c1 (stereo unspecified),–,inactive: 4.69%
CC1CC(CC(C)C(=O)Nc2nncs2)C(=O)O1 (stereo unspecified),–,inactive: -9.01%
CCS(=O)(=O)N1CCN(CC(=O)NC2CCCCC2)CC1,–,inactive: -9.93%
CCC1(C)Cc2c(sc3nnn(CC(=O)Nc4ccccc4C)c(=O)c23)CO1 (stereo unspecified),–,inactive: -1.2%
Cc1cccc(NC(=S)NCc2ccccn2)c1,"inconclusive [inhibitor, single point]",–
Cc1ccccc1-c1nc(CN2CCC(C(=O)NCCC3=CCCCC3)CC2)c(C)o1,–,inactive: -6.26%
O=C(c1ccccc1)N1CCN(c2ccc(NCc3ccc4c(c3)OCO4)cc2)CC1,"inconclusive [inhibitor, single point]",–
COc1ccc(NC2c3ccccc3C(=O)N2Cc2ccc3c(c2)OCO3)cc1 (stereo unspecified),"inconclusive [inhibitor, single point]",–
Cn1c(=O)c2c(nc(NCCO)n2CCc2ccccc2)n(C)c1=O,"inconclusive [inhibitor, single point]",–
O=C1N=C(N2CCc3ccccc3C2)S/C1=C\c1cccc(O)c1,"inconclusive [inhibitor, single point]",–
Cc1cccc(N(CC(=O)NCc2ccccc2)C(=O)CCC(=O)Nc2nccs2)c1,–,inactive: -1.51%
Cc1nc(NC(=O)c2ccccc2)sc1Cc1ccc2c(c1)OCO2,"inconclusive [inhibitor, single point]",–
N#C[C@]1(S(=O)(=O)c2ccccc2)C[C@@H]2ON=C(c3cccc(Br)c3)[C@@H]2C1,active: 11.2 µM,–
CCN(CC)CCNC(=S)N1CCn2c(nc3ccccc32)C1,"inconclusive [inhibitor, partial curve, poor fit]",–
CCc1n[nH]c(=S)n1/N=C/c1ccc(N(CC)CC)cc1,active: 6.31 µM,–
CC(C)OC(=O)CC1C(=O)NCCN1C(=S)NC(=O)c1cccs1 (stereo unspecified),active: 11.2 µM,–
COc1ccc(NC(=S)NC(=O)C2CCCCC2)cc1,–,inactive: -18.5%
O=C(Nc1nccs1)c1ccc2ccccc2n1,"inconclusive [inhibitor, partial curve]",–
O=C(CCCn1c(SCc2ccccc2F)nc2ccccc2c1=O)NCC1CCCO1 (stereo unspecified),–,inactive: 2.36%

SMILES,Potency,"activity, negative = inhibition"
COc1ccc(C(=O)N=C2SC3CS(=O)(=O)CC3N2c2ccc(N(C)C)cc2)cc1OC (stereo unspecified),"inconclusive [inhibitor, partial curve]",–
Cc1cc(C)c2sc(N(CCCN(C)C)C(=O)c3ccc(Br)s3)nc2c1,–,inactive: -18%
COc1ccccc1CCNC(=O)C(=O)NCC1OCCN1S(=O)(=O)c1ccc([N+](=O)[O-])cc1 (stereo unspecified),"inconclusive [inhibitor, single point]",–
Cc1cc(NC(=O)CN2C(=O)[C@@H]3[C@H](C2=O)[C@@H]2C[C@H]3C(Br)C2Br)no1 (stereo partly specified),–,inactive: -0.445%
CCNc1nc(NCC)n2c(SC(C(=O)Nc3cc(Cl)cc(Cl)c3)c3ccccc3)nnc2n1 (stereo unspecified),"inconclusive [inhibitor, single point]",–
COCCCNC(=S)Nc1c(C)cc(C)cc1C,"inconclusive [inhibitor, single point]",–
C=CC[C@H]1CC(C)=C[C@H](CC=C)N1C(=O)c1cc(COc2ccccc2SC)on1,"inconclusive [inhibitor, single point]",–
Cc1ccc2c(c1)c(N=NC(N)=S)c(O)n2Cc1ccccc1,active: 2.51 µM,–
C=CCOC(=O)C1=C(C)NC(SCC(=O)Nc2nccs2)=C(C#N)C1c1ccc(Cl)cc1 (stereo unspecified),"inconclusive [inhibitor, single point]",–
CC(C)C[C@H](NC(=O)c1nc[nH]c1C(=O)N[C@@H](CC(C)C)C(=O)OC(C)(C)C)C(=O)OCc1ccccc1,active: 7.08 µM,–
CC(C)n1c(Nn2cnnc2)nc2ccccc21,–,inactive: 9.21%
COc1ccc(OC)c(CN(CCCN2CCOCC2)S(=O)(=O)c2ccc(NC(C)=O)cc2)c1,–,inactive: -1.14%
CC(NC(=O)CCCc1c[nH]c2ccccc12)c1ccc(F)cc1 (stereo unspecified),–,inactive: -18.8%
COc1cc(OC)cc(C(=O)O/N=C(\N)c2cccc(C)c2)c1,"inconclusive [inhibitor, partial curve]",–
COc1cccc(N/C(N)=N/c2nc(C(F)(F)F)cc(=O)[nH]2)c1,"inconclusive [inhibitor, single point]",–
Oc1c(-c2cc(-c3ccco3)[nH]n2)ccc2ccccc12,active: 14.1 µM,–
CCCNC(=O)N1CCC(C(=O)c2ccc(Cl)cc2)CC1,"inconclusive [inhibitor, single point]",–
O=C(NC1CCCCC1)N(Cc1cc2cc3c(cc2[nH]c1=O)OCCO3)CC1CCCO1 (stereo unspecified),"inconclusive [inhibitor, single point]",–
CCc1cc2c(nc1CC)CCN(CC/C(C)=N/OC[C@H]1O[C@H](c3ccccc3)C=C[C@@H]1Oc1ccc(OC)cc1)C2,"inconclusive [inhibitor, single point]",–
CC(C)(C)c1cc(C2=CSC3=NCCN23)cc(C(C)(C)C)c1O,"inconclusive [inhibitor, partial curve]",–
CCC1CC2CC(NC(C)=O)C1C2 (stereo unspecified),–,inactive: 1.81%
CC(C)(C)c1ccc(OCC(O)CN(CCO)CC(O)Cn2ccc3ccccc32)cc1 (stereo unspecified),"inconclusive [inhibitor, single point]",–
CC(C)C[C@H](NC(=O)c1[nH]cnc1C(=O)N[C@@H](C)C(=O)OC(C)(C)C)C(=O)OCc1ccccc1,"inconclusive [inhibitor, single point]",–
